The list shows a part of the results.
molecular target: T1, OsWOX13 (Oryza sativa, UniProt Q5QMM3 1-267); experiment: protein-binding microarray (RPBM); PBS, 2% BSA, 51.3 ng/ul salmon testes DNA, 50 uM zinc acetate, 200 nM TF, 25 C, 1 h; high values mean tight binding; conditions: protein: recombinant; tags: N-terminal polyhistidine and DsRed monomer fusion (pET32a); label: CyDye5-dUTP incorporated in the synthesized complementary strand; 3' TTTTT single-stranded linker to array surface; dsDNA, one strand shown
T1 sequence: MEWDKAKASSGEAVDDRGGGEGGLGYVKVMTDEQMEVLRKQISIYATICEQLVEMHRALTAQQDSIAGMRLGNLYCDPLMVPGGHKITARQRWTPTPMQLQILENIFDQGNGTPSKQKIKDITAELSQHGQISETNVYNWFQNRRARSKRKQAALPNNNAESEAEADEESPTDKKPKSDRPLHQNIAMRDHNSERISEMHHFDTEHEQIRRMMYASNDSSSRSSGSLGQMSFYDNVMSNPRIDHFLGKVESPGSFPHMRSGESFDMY
Summary of the method: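 The binding signal for each feature is its fluorescence intensity in arbitrary units. An Axon 4000B scanner was used to read a custom Agilent array that had been made double-stranded with Cy5-dUTP primer extension, blocked with 2% BSA, incubated at 25 °C for 1 h with 200 nM protein in PBS, 2% BSA, salmon testes DNA and 50 µM zinc acetate, and washed. The protein was an N-terminal polyhistidine–DsRed transcription factor fusion from E. coli BL21-CodonPlus, purified on Ni–NTA.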

| Sequence | binding signal |
| --- | --- |
| GAATAATTTTCGCTGACCATTGGGTTATATAGTTCGGTAGCGGAGTCACCTAGTGCAG | 9020 fluorescence intensity (a.u.) |
| CCCAATAATTAGTTGGCTGCTGCTGTAGTTGACTTATGGACGGAGTCACCTAGTGCAG | 33900 fluorescence intensity (a.u.) |
| CTGCTATAATTTATCTGGAGGGGCTATTGACAACAGCACTCGGAGTCACCTAGTGCAG | 7470 fluorescence intensity (a.u.) |
| TTTAAACTGCTAAACGGTGTGTTTAGTGCGAAAATATTCTCGGAGTCACCTAGTGCAG | 3600 fluorescence intensity (a.u.) |
| TTTATGCTTAATTTGTTGAATAAATAGTTTGTCGAAACACCGGAGTCACCTAGTGCAG | 10200 fluorescence intensity (a.u.) |
| ATTAACCCAATCAAATAACTCTAATTAACAAATGCTAACACGGAGTCACCTAGTGCAG | 29300 fluorescence intensity (a.u.) |
| CCATGTTAACTGAAAAGGCACCAATAATGTTATCCTTTGGCGGAGTCACCTAGTGCAG | 5040 fluorescence intensity (a.u.) |
| CCAAATTTCACTCAAAATCTACTTTTGTCCCAAGTTGGAACGGAGTCACCTAGTGCAG | 4170 fluorescence intensity (a.u.) |
| TGCATTGATTTGGTATAATTGACCATGCTTTGCGATGCAACGGAGTCACCTAGTGCAG | 57700 fluorescence intensity (a.u.) |
| CAACAAACAGATTGGCATTTAAGTTGTTAAATTCTGATCTCGGAGTCACCTAGTGCAG | 33800 fluorescence intensity (a.u.) |
| TTTCAAATTTAATTCCCCGATCCTGCGGGTTCGAGCCCTTCGGAGTCACCTAGTGCAG | 3460 fluorescence intensity (a.u.) |
| TGAAATTGGAATGATGTGAAGGAAAAGTTGGAAGTTTGTGCGGAGTCACCTAGTGCAG | 20700 fluorescence intensity (a.u.) |
| CTAAGTAGACTGATAAACAAATAGGCATGCCATTGTGTAACGGAGTCACCTAGTGCAG | 7110 fluorescence intensity (a.u.) |
| AGTGAATTGAGCAAGATTGCAAGGGCAAGCAGCTATATATCGGAGTCACCTAGTGCAG | 5840 fluorescence intensity (a.u.) |
| AGAGATGATTTCACTTTCCCGATACTACTAACCTTGACCACGGAGTCACCTAGTGCAG | 5500 fluorescence intensity (a.u.) |
| GAGATTTGATGACTGGGATGCCACATGGACACCACGACAGCGGAGTCACCTAGTGCAG | 15900 fluorescence intensity (a.u.) |
| CCGGTGTAATTTGATTCTCTAAGCGGTTTTAGATCTAAGCCGGAGTCACCTAGTGCAG | 8050 fluorescence intensity (a.u.) |
| ATAATGATAATTAACAAAATAATAGGTAGCTAAATTCATTCGGAGTCACCTAGTGCAG | 27200 fluorescence intensity (a.u.) |
| AATGATTATTCTTCTAAACCTTCAAAGCGAATGCAATGTCCGGAGTCACCTAGTGCAG | 25600 fluorescence intensity (a.u.) |
| ACCAAAGTAATTTCAATCTCATTGGAATTAATTGTTAGCCCGGAGTCACCTAGTGCAG | 28700 fluorescence intensity (a.u.) |
| TGTGATTTCACTTTGATTTGAAGAATTTTGCTTTGGTTCACGGAGTCACCTAGTGCAG | 27200 fluorescence intensity (a.u.) |

| Sequence | binding signal |
| --- | --- |
| AATATTGACAGATGAGTTTAGAGTCCACATAGAAATACAACGGAGTCACCTAGTGCAG | 9020 fluorescence intensity (a.u.) |
| TTTAAAGGAACTAATTTAACCTAATTTTGCATGTTAAGGGCGGAGTCACCTAGTGCAG | 4160 fluorescence intensity (a.u.) |
| TCGGCCTACTAGATTGACGAGGCCCAACACATCAGGCCTTCGGAGTCACCTAGTGCAG | 15700 fluorescence intensity (a.u.) |
| TAATTTATTAATTTATTATTAGAGTATATATATTTCAAGACGGAGTCACCTAGTGCAG | 6800 fluorescence intensity (a.u.) |
| AGTACAATGGGCCAAATTAATTGGACCCATGTTTTCGTTGCGGAGTCACCTAGTGCAG | 6960 fluorescence intensity (a.u.) |
| CGTCCAAGTACATAAGATTAATTGCCACCTATAAAATGGGCGGAGTCACCTAGTGCAG | 6430 fluorescence intensity (a.u.) |
| GTGATTACCAGATTTGCCCTTCGTACTGCTTAGAGTCATGCGGAGTCACCTAGTGCAG | 13500 fluorescence intensity (a.u.) |
| TGAACGTAACTTGATTGGTTAGCCTCGTTATGGTGTGCAACGGAGTCACCTAGTGCAG | 34400 fluorescence intensity (a.u.) |
| TTGGTTTCTAATTTGGCTGAATGACTGCAAGTTCCAAGGCCGGAGTCACCTAGTGCAG | 5830 fluorescence intensity (a.u.) |
| GTATAAACACATATTCGACATGATTAGGAAATGGCCTTCCCGGAGTCACCTAGTGCAG | 5520 fluorescence intensity (a.u.) |
| CCGTCAATTTGATAGTAAGATCTGTAACGCGTGGTCTTTCCGGAGTCACCTAGTGCAG | 10900 fluorescence intensity (a.u.) |
| TGCTAGTTAATATAATCTACTAATTAAAATAGTCGATTGACGGAGTCACCTAGTGCAG | 6000 fluorescence intensity (a.u.) |
| AAATTTTAATTTATATTATAATAGTTGTTGGTCAAATATTCGGAGTCACCTAGTGCAG | 6360 fluorescence intensity (a.u.) |
| GTAATTTTAAGTATAATTATGGGTTTTGTGTCCAAAATTTCGGAGTCACCTAGTGCAG | 9000 fluorescence intensity (a.u.) |
| ACTAATTGGAGAGGGAAAAGCACAGGGAATCCCGTGCCATCGGAGTCACCTAGTGCAG | 12800 fluorescence intensity (a.u.) |
| AGGGAAATCAACACTAATTGCTGCCTTCATACTAGCACATCGGAGTCACCTAGTGCAG | 19800 fluorescence intensity (a.u.) |
| TAAGCAACCAATTAAGTGATCGACCAACCAATCTGTACACCGGAGTCACCTAGTGCAG | 4240 fluorescence intensity (a.u.) |
| TATTCAAATCATTTAAGTAATTATTTATTCTTTTCATATCCGGAGTCACCTAGTGCAG | 10000 fluorescence intensity (a.u.) |
| ATTAATTTGTGTGTGAAACTGACATGTGGGTCCCACGGGGCGGAGTCACCTAGTGCAG | 23800 fluorescence intensity (a.u.) |
| TGTGAGTGATCAAATAATTGATCATAATTTTCTATCGATTCGGAGTCACCTAGTGCAG | 37500 fluorescence intensity (a.u.) |
| TTTTATTTTACCATCTAATTACTACAATAGAATTTAACTGCGGAGTCACCTAGTGCAG | 3190 fluorescence intensity (a.u.) |

— article PMC7819943, “Rice protein-binding microarrays: a tool to detect cis-acting elements near promoter regions in rice”
